# Results: the supplement of paper PMC7826260
# This is one part of the list. The data describe in vitro nicking of single-stranded DNA by Rep domains for 1 h at 37 °C with 3 µM enzyme; only the middle of the 90-letter strands is printed. The score is log2 (uncut reads / reads without enzyme); more negative means more cut, near 0 not cut, and no call is made. Counts are relative to all reads; where an enzyme cuts many sequences, the uncut ones exceed 0.
# How the values were obtained:
# Test in all cases: uncleaved DNA left, log2 of reads against the no-enzyme library (log2 ratio); higher = less cleavage (more negative = more Rep cleavage of the k-mer); sequences stand for … in CTCGTCCG…ACCGGAGA
# [1] = system: T1, Rep nickase domain of Muscovy duck circovirus
# T1 sequence (Rep 1-111, printed without the tag): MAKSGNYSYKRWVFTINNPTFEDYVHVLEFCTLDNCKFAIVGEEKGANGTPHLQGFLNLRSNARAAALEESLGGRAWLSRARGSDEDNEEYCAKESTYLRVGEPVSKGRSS
# Protocol: (§1)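 A pool of 90-nt single-stranded DNAs with seven random bases just before the constant AC of the nick site (name = the seven bases) was cut by 3 µM recombinant His6-SUMO-tagged Rep nickase domain (300 nM DNA, 50 mM HEPES pH 8.0, 50 mM NaCl, 1 mM MnCl2, 1 h, 37 °C, three replicates). Uncut DNA was amplified and sequenced.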
# [2] = system: T2, Rep nickase domain of banana bunchy top virus
# T2 sequence (Rep 1-94, printed without the tag): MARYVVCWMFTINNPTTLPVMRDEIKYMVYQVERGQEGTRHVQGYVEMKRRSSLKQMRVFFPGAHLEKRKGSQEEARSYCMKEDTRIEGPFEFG
# Protocol: as §1
# [3] = system: T3, Rep nickase domain of cabbage leaf curl virus
# T3 sequence (Rep 1-116, printed without the tag): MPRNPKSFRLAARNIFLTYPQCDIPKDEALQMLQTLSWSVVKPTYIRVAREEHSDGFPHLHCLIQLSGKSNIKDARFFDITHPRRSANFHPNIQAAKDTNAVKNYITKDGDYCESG
# Protocol: as §1
# [4] = system: T4, Rep nickase domain of chickpea chlorotic dwarf virus
# T4 sequence (Rep 1-124, printed without the tag): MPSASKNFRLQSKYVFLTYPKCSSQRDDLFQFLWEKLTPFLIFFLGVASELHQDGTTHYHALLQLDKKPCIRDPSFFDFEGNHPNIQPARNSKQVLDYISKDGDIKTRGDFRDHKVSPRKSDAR
# Protocol: as §1
# [5] = system: T5, Rep nickase domain of faba bean necrotic yellows virus
# T5 sequence (Rep 1-98, printed without the tag): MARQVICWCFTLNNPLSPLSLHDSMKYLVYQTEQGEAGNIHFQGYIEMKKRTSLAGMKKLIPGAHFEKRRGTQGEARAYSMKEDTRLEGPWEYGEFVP
# Protocol: as §1
# [6] = system: T6, Rep nickase domain of maize striate mosaic virus
# T6 sequence (Rep 1-117, printed without the tag): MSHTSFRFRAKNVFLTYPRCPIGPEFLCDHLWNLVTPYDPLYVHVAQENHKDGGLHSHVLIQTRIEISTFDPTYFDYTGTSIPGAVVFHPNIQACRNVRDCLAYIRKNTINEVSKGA
# Protocol: as §1
# [7] = system: T7, Rep nickase domain of porcine circovirus 2
# T7 sequence (Rep 2-116, printed without the tag): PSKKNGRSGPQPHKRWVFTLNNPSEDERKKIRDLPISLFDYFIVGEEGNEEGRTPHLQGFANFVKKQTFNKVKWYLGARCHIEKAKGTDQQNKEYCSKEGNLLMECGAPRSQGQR
# Protocol: as §1
# [8] = system: T8, Rep nickase domain of tomato golden mosaic virus
# T8 sequence (Rep 1-124, printed without the tag): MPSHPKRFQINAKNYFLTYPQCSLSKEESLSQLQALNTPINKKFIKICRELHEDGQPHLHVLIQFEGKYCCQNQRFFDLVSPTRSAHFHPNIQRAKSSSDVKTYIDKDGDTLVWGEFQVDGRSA
# Protocol: as §1
# [9] = system: T9, Rep nickase domain of tomato yellow leaf curl virus
# T9 sequence (Rep 1-136, printed without the tag): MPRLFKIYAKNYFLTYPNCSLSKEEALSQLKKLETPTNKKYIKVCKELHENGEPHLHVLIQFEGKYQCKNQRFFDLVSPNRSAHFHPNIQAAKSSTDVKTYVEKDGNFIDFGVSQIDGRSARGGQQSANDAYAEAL
# Protocol: as §1
# [10] = system: T10, Rep nickase domain of wheat dwarf virus
# T10 sequence (Rep 1-137, printed without the tag): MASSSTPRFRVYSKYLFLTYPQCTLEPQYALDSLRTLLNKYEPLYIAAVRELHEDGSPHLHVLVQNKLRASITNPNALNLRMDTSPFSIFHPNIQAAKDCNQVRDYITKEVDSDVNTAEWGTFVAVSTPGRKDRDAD
# Protocol: as §1
Sequence,uncleaved DNA left (log2) [1],uncleaved DNA left (log2) [2],uncleaved DNA left (log2) [3],uncleaved DNA left (log2) [4],uncleaved DNA left (log2) [5],uncleaved DNA left (log2) [6],uncleaved DNA left (log2) [7],uncleaved DNA left (log2) [8],uncleaved DNA left (log2) [9],uncleaved DNA left (log2) [10]
AGTGCAA,-0.058,-0.145,-0.118,0.383,-0.15,0.175,-0.299,-0.172,-0.151,-0.0865
CGTGATC,-0.186,-0.0875,0.049,0.224,0.033,0.0876,-0.0288,0.0328,0.137,-0.00921
GTCTTCT,-0.0845,0.0784,0.385,0.642,-0.00233,1.66,-0.376,0.0629,0.109,0.0359
ATCAGAC,-0.0563,-0.0902,0.0403,0.239,-0.0274,-0.564,0.158,0.00361,-0.101,-0.105
CCCTTAA,-0.161,-0.112,-0.0436,-0.431,0.145,-0.817,0.0448,0.0448,-0.0671,-0.031
AGACATA,-0.0278,0.0567,0.562,1.04,0.0729,1.85,0.0203,-0.0289,0.0751,0.12
AGGCAGA,0.0189,-0.056,0.403,0.856,0.0965,0.377,0.205,0.0832,0.0666,0.0806
GGGTTAC,-0.0764,-0.00192,0.667,1.56,-0.0556,2.06,0.151,-0.0152,0.00248,0.0687
GGGAGAA,-0.02,0.0945,0.845,2.07,-0.0148,2.22,0.162,0.125,-0.0548,0.0766
GAGTGGG,0.167,0.0834,-0.248,-0.197,0.1,-0.263,0.107,0.195,0.127,0.0204
TGTTGGT,-0.853,-0.0195,0.0732,-0.0545,-0.0252,-0.26,-1.06,-0.09,0.0944,-0.0738
GAATTGA,0.0055,-0.15,-0.193,-0.12,-0.118,-0.809,-0.069,-0.0154,-0.0717,-0.0648
TGGATCT,0.0249,-0.0764,0.476,0.637,-0.11,1.52,-0.0365,-0.172,0.0541,0.0879
TACATGA,-0.0284,0.0146,-0.168,-0.65,-0.013,-0.846,0.0754,-0.0508,-0.0728,-0.0009
CGCGCGG,-0.0838,-0.0321,0.445,1.15,-0.1,1.59,0.156,0.0677,-0.274,-0.125
GAGAAGA,0.0561,0.0328,0.336,0.724,0.0868,0.229,0.0705,0.0734,0.087,0.146

Sequence,uncleaved DNA left (log2) [1],uncleaved DNA left (log2) [2],uncleaved DNA left (log2) [3],uncleaved DNA left (log2) [4],uncleaved DNA left (log2) [5],uncleaved DNA left (log2) [6],uncleaved DNA left (log2) [7],uncleaved DNA left (log2) [8],uncleaved DNA left (log2) [9],uncleaved DNA left (log2) [10]
GGGAATC,0.00766,0.0548,0.86,1.98,0.0815,2.26,0.176,-0.0326,0.0265,0.217
GGCTCGC,-0.00781,-0.00154,0.322,0.71,-0.0922,1.45,0.0699,0.0764,0.0665,-0.00725
CAACTAA,0.0435,0.0629,-0.212,-1.54,0.134,-0.668,-0.0853,0.0525,0.104,0.114
CCATGAC,0.254,0.0853,0.0658,0.0144,0.119,-0.557,0.406,0.162,0.154,0.0964
TGTACTC,-0.00776,0.0186,0.331,0.398,0.0318,1.03,0.0653,-0.0102,0.113,0.106
GAGTAAC,0.0206,0.11,0.214,0.231,0.0663,1.26,-1.11,0.11,0.0799,0.0903
GCAGCAC,0.0106,0.0359,-0.0631,-0.00405,-0.0261,-0.41,0.0647,0.0498,0.0775,-0.034
CGTGGTA,0.0887,0.0541,0.156,0.373,-0.0278,0.812,0.00153,0.115,0.0513,0.0259
CAAACGA,0.0103,-0.0367,-0.44,-0.671,0.0301,-0.941,0.115,0.00412,-0.0747,-0.0568
CCCAAGG,-0.0511,-0.03,0.36,1.11,0.0285,0.895,0.062,0.077,-0.194,0.072
CTTCCAA,0.0403,0.0197,0.0818,-0.351,0.0505,-0.534,-0.176,-0.075,0.0774,0.0806
TTCACGT,0.0395,-0.059,0.188,0.0573,-0.0304,0.37,0.00827,-0.0986,-0.0563,-0.0494
CCGCCAA,-0.0849,-0.153,-0.0318,-0.334,-0.0303,-0.65,-0.249,-0.126,-0.126,-0.089
AAGCAAT,-0.146,0.0133,0.195,0.713,-0.00296,1.22,-2.71,-0.0212,-0.134,-0.0292
TCATAAT,-3.68,-0.119,-3,-2.8,-0.0648,-1.07,-4.01,-0.464,-0.102,-0.341
